Assay results as given in the supplement of paper PMC12645437, “Orthogonal IMiD-Degron Pairs Induce Selective Protein Degradation in Cells” (ACS Chemical Biology, 2025).
The other results are listed elsewhere or left out.

Target: no compound (DMSO)
Assay: log2 fold change of degron read counts, EGFP-low vs EGFP+ sorted cells; higher = lower degron-EGFP level without compound (poor expression or instability)
Settings: compound: DMSO control; 18 h
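Note: jurkat cells carrying a lentiviral library of mutant zinc finger degrons fused to EGFP plus mCherry, mCherry+ cells FACS sorted, degron abundance counted by next-generation sequencing.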

| Sequence | log2 fold change of degron read counts |
| --- | --- |
| FLCNICGASFTQKGNLLRHIKL | -0.626 |
| FVCEQCGASFTQKGNLLRHIKL | -2.34 |
| FKCSVCGHGFTQKGNLLRHIKL | -0.539 |
| FKCDVCGATFTQKGNLLRHIKL | -1.42 |
| FYCPQCGAEFTQKGNLLRHIKL | -0.818 |
| FQCNQCGANFTQKGNLLRHIKL | -0.755 |
| FDCDVCGAWFTQKGNLLRHIKL | 0.377 |
| FSCDQCGARFTQKGNLLRHIKL | -0.829 |
| FMCNICGAMFTQKGNLLRHIKL | -0.278 |
| FSCNVCGAVFTQKGNLLRHIKL | -1.26 |
| FLCPICGRSFTQKGNLLRHIKL | -0.317 |
| FVCPICGAGFTQKGNLLRHIKL | -0.617 |
| FMCNICGAAFTQKGNLLRHIKL | -0.557 |
| LECPICGFMCTQKGNLLRHIKL | 0.37 |
| FKCEICGHFFTQKGNLLRHIKL | -0.477 |
| LMCNQCGFWCTQKGNLLRHIKL | 1.7 |

| Sequence | log2 fold change of degron read counts |
| --- | --- |
| FDCNQCGALFTQKGNLLRHIKL | 0.236 |
| FMCEICGAIFTQKGNLLRHIKL | -0.929 |
| FMCNQCGAKFTQKGNLLRHIKL | -0.317 |
| FKCPICGHNFTQKGNLLRHIKL | -0.539 |
| FECEICGRMFTQKGNLLRHIKL | -1.44 |
| FSCNQCGRGFTQKGNLLRHIKL | -0.284 |
| FGCEICGHHFTQKGNLLRHIKL | -0.59 |
| LICEICGFICTQKGNLLRHIKL | 1.1 |
| FTCDICGAEFTQKGNLLRHIKL | -2.32 |
| FCCDQCGACFTQKGNLLRHIKL | -2.58 |
| FNCPICGACFTQKGNLLRHIKL | -0.0373 |
| FECEICGAGFTQKGNLLRHIKL | -1.83 |
| FMCNICGAHFTQKGNLLRHIKL | -0.729 |
| FKCEICGRCFTQKGNLLRHIKL | -1.32 |
| FTCPICGARFTQKGNLLRHIKL | -0.0603 |
| FRCPICGAFFTQKGNLLRHIKL | 1.16 |
